Test results taken from PubChem BioAssay AID1346428 (National Center for Advancing Translational Sciences (NCATS), 2018).
“And” between values parts separate entries of the source, which are not always exact repeats. Equal entries are not always repeated. The campaign covered roughly 48,000 compounds. About 1,200 (2.5%) were called active. Roughly 2% stayed inconclusive and do not appear here.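 The calls were made as follows: active = activation of at least 60% and not above a set upper limit (about 1 call in 100 departs from these limits); inconclusive = activation of 40% to 60%, or above that upper limit; inactive = activation under 40%.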 This is one part of the list.

Biological target: Probable G-protein coupled receptor 32 (Homo sapiens) (UniProt O75388)
Assay: qHTS for Agonists of Human Resolvin D1 Receptor DRV1; also: 0% is about no effect
Conditions: CHO-K1 GPR32 beta-arrestin PathHunter luminescence, 90 min; at 76.9 µM; stronger effect = higher value; zero percent set by DMSO-only wells
Method in brief: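 CHO-K1 cells stably expressing ProLink-tagged GPR32 and Enzyme Activator-tagged beta-arrestin were seeded at 2,500 cells/well overnight, exposed to compounds for 90 min at 37 °C, then read by beta-Gal complementation chemiluminescence after 1 h detection reagent.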

UniProt O75388, sequence (O75388 whole entry, looked up): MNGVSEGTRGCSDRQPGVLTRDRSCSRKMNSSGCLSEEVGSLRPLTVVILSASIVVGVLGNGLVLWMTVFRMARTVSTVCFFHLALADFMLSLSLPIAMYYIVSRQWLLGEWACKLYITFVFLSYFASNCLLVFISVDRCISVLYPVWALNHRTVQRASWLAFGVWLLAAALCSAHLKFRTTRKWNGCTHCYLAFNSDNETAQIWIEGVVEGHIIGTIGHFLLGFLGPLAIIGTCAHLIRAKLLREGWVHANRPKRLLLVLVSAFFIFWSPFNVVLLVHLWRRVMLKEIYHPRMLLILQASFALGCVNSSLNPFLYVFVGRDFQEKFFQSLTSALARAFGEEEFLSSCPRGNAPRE

Compound	activation
CC1CCCCN1C(=O)CSc1c2c(nc3cc(Cl)ccc13)CCCC2 (stereo unspecified)	inactive: -19.2%
Cc1cc2c(cc1S(=O)(=O)NCc1ccccc1Cl)OCC(=O)N2	inactive: 3.26%
Cc1ccc(-n2ncc3c(Nc4cccc(C(F)(F)F)c4)ncnc32)cc1C	active: 93.7%
COc1cccc(-c2nc(CS(=O)(=O)CC(=O)NCCc3ccc(Cl)cc3)c(C)o2)c1	inactive: 2.42%
Cc1cc(C)cc(NC(=O)COCc2cc(-c3ccc4c(c3)OCO4)on2)c1	inactive: -17.1%
COc1ccc(OC)c(NC(=O)Cn2cnc3onc(-c4ccc(Cl)cc4)c3c2=O)c1	inactive: 49.2%
COc1ccc(NC(=O)CN(C)S(=O)(=O)c2ccc3c(c2)c(=O)n(C)c(=O)n3C)cc1	inactive: 2.74%
NS(=O)(=O)c1ccc(NC(=O)c2csnn2)cc1	inactive: 2.58%
CC(C)c1ccc(NC(=O)c2cnc3sc(N4CCOCC4)nn3c2=O)cc1	inactive: -6.97%
Cc1ccc(C(=O)NCC(c2ccco2)S(=O)(=O)c2ccc(Cl)cc2)cc1C (stereo unspecified)	inactive: -9.5%
CCCCNC(=O)c1cn(C)c2ccc(S(=O)(=O)N3CCCC3)cc2c1=O	inactive: -2.75%
COc1ccc(OCC2c3cc(OC)c(OC)cc3CCN2C(=O)c2c(F)cccc2F)cc1 (stereo unspecified)	inactive: -2.6%
COc1ccc(-c2nc3ccc(Cl)cn3c2Nc2ccc(C)cc2)cc1	inactive: -5.61%
CCc1ccc(-n2nc(CO)c(C(=O)NCc3cccs3)n2)cc1	inactive: -5.59%
COc1cc(OC)c(NC(=O)Cn2cnc3sc(C)c(S(=O)(=O)N4CCC(C)CC4)c3c2=O)cc1Cl	inactive: 2.98%
COc1ccc(N2CC(NC(=O)C(=O)c3c(C)[nH]c4ccccc34)CC2=O)cc1 (stereo unspecified)	inactive: -17.6%
Cc1ccc(NC(=O)CCn2c(=O)c3cccn3c3ccccc32)cc1Cl	inactive: -23.4%
O=C(CSc1nc(=O)n(Cc2ccco2)c2c1CCC2)NCc1ccc(Cl)cc1	inactive: -1.69%
Cc1cc(NC(=O)Nc2nnc(N3CCCCC3)s2)ccc1Br	inactive: 5.79%
Cc1ccc(C(=O)N2CCN(Cc3cc(=O)n4nc(-c5ccccc5)sc4n3)CC2)cc1	inactive: -0.346%
Cc1cc(C)c2nc(N(Cc3cccnc3)C(=O)Cc3ccccc3)sc2c1	inactive: -0.0918%
Cc1cc(C)n(-c2nc3ccccc3nc2Nc2cc(Cl)ccc2C)n1	inactive: -5.33%

Compound	activation
COc1ccccc1CNC(=O)CSc1nc(=O)[nH]c2c1CCCC2	inactive: -9.47%
CCN(Cc1ccccc1)C(=O)Cn1c(=O)n(-c2ccc(Cl)c(Cl)c2)c(=O)c2c(C)c(C(=O)N(C)C)sc21	inactive: -14.3%
Cc1ccc(-c2ccc(CCC(=O)O)n2-c2cccc(C)c2C)cc1	inactive: 4.89%
COc1ccc(NC(=O)c2c(C)oc3ccc(O)c(CN4CCCCCC4)c23)cc1	inactive: 24.5%
Cc1ccc(C)c(N2CCN(C(=O)CN3C(=O)COc4ccc(S(=O)(=O)N5CCC(C)CC5)cc43)CC2)c1	inactive: -19.1%
CCOc1ccc(Br)cc1S(=O)(=O)Nc1cccc(-c2ccc(OC)nn2)c1	inactive: 9.94%
O=c1[nH]c(=O)n([C@H]2C[C@H](O)[C@@H](CO)O2)cc1Br	inactive: -4.65% and inactive: 7.58%
Cc1ccc(N2CCN(S(=O)(=O)c3ccc(-n4cnnn4)cc3)CC2)c(C)c1	inactive: -4.48%
COc1ccc(-n2c(=O)c3c4c(sc3n(Cc3ccc(C(C)(C)C)cc3)c2=O)CCC4)c(OC)c1	inactive: 26.2%
CCn1nnc2cc(C(=O)Nc3ccc(OC)cc3)ccc21	inactive: 34.9%
Cc1ccc(Cl)cc1N1CCN(C(=O)c2ccc3c(c2)N(Cc2ccccc2)CCS3)CC1	inactive: -8.12%
Cc1[nH]cnc1-c1ccc(Cl)cc1	inactive: 22.3%
Cc1cn2c(=O)cc(COC(=O)c3ccc(NC(=O)C(C)Oc4ccccc4)cc3)nc2s1 (stereo unspecified)	inactive: -10.9%
CCOCCCNC(=O)c1c(NC(=O)c2nc(SC)ncc2Cl)sc2c1CCCC2	inactive: -13.9%
COc1cc(NC(C)CCCN)c2ncccc2c1 (stereo unspecified)	inactive: 9.48%
COc1ccc(CCNC(=O)c2cc(=O)[nH]c3ccc(S(=O)(=O)N4CCCCC4C)cc23)cc1OC (stereo unspecified)	inactive: -15.4%
CCOC(=O)c1c(N)n(-c2cc(C)cc(C)c2)c2nc3ccccc3nc12	inactive: -6.05%
COc1cccc(NC(=O)Cc2csc(COc3cccc(C)c3)n2)c1	inactive: -9.8%
Fc1ccc(Nc2c(-c3ccccn3)nc3ccc(Cl)cn23)cc1	inactive: -26.5%
O=C(Nc1cc(Cl)cc(Cl)c1)c1cc(S(=O)(=O)N2CCC3(CC2)OCCO3)ccc1F	inactive: -22.8%
O=C(NCCc1ccccc1)c1nn(-c2ccccc2Cl)nc1CO	inactive: -8.11%
COc1ccc(OC)c(NC(=O)CCNC(=O)Cn2cnc3ccccc3c2=O)c1	inactive: 15.8%

Compound	activation
Cc1ccc(C)c(-n2nnc(C(=O)Nc3ccc(Br)cc3)c2C)c1	inactive: 26%
CCCCC1(COC(=O)CCC(=O)O)C(=O)N(c2ccccc2)N(c2ccccc2)C1=O	inactive: -2.69%
COCCn1c(C)cc(O)c(C(c2ccc(OC)cc2)N2CCN(c3ccccc3)CC2)c1=O (stereo unspecified)	inactive: -9.11%
CCc1cccc(C)c1NC(=O)c1cnn(-c2ccc(OC)cc2)c1C1CCN(C(=O)OC(C)(C)C)CC1	inactive: -17.6%
COc1ccc(NC(=O)c2nc(-c3ccc(C)cc3)n3c2CCCCC3)c(OC)c1	inactive: 6.91%
CCOCCc1nn2c(=O)cc(COC(=O)c3ccc(NC(=O)C(C)(C)C)cc3)nc2s1	inactive: 12.6%
CCOC(=O)c1ccccc1NC(=O)c1cnc(N2CCOCC2)c2ccccc12	inactive: -23.4%
Cc1ccc(SCC(=O)Nc2ccc3oc(-c4ccccc4F)nc3c2)cc1	inactive: -9.21%
CCN(CC)c1nn2c(=O)c(C(=O)NCc3ccc(N(C)C)cc3)cnc2s1	inactive: -0.636%
COc1ccc(CNC(=O)Cn2c(-c3ccccc3)cc(C(C)=O)c2C)cc1OC	inactive: -10.6%
COc1ccc(N2CC(NC(=O)/C=C\c3ccccc3)CC2=O)cc1OC (stereo unspecified)	inactive: 0.173%
Cc1nn(C)c(C)c1CCNC(=O)Nc1ccccc1C(F)(F)F	inactive: -5.05%
O=C(NCc1cccs1)c1ccc(CSc2nc3ccncc3n2Cc2ccccc2F)cc1	inactive: -9.52%
CN(Cc1ccco1)S(=O)(=O)c1nnc(NC(=O)c2ccccc2Cl)s1	inactive: 10.9%
CCC(=O)N1CCc2cc(S(=O)(=O)NC(C(=O)NCCc3cccc(C)c3)C(C)C)ccc21 (stereo unspecified)	inactive: -4.79%
COc1cc(Cl)c(C)cc1Nc1nc2ccccc2n2cnnc12	inactive: 3.48%
COc1ccc(C(=O)CCC(=O)Nc2ccc(C)c(Cl)c2)cc1	inactive: -18.7%
CC1CCCN(CCCNC(=O)c2cc3c(Cl)nc4ccccc4c3s2)C1 (stereo unspecified)	inactive: -2.55%
CCc1ccccc1N(C)C(=O)c1sc2nc3n(c(=O)c2c1C)CCCCC3	inactive: -4.14%
O=C(NCCc1csc(-c2ccc(F)cc2)n1)c1cccc(F)c1	active: 65.7%
Cc1ccc(C2c3[nH]c4ccccc4c3CCN2C(=O)CSCc2ccc(F)cc2)cc1 (stereo unspecified)	inactive: -33.9%
COc1ccccc1CNC(=O)C1CCN(S(=O)(=O)c2cn(C)cn2)CC1	inactive: -4.58%

Compound	activation
CCCCCn1c(=O)[nH]c2cc(C(=O)NC(C)CC)ccc2c1=O (stereo unspecified)	inactive: 22.9%
COc1ccc(CCNC(=O)c2cc(=O)c3ccc(C)cc3o2)cc1OC	inactive: 1.07%
COCCn1c(=O)[nH]c2cc(C(=O)Nc3ccc(OC)cc3)ccc2c1=O	inactive: 10.5%
COc1ccc(C(=O)Nc2ccc3oc(-c4cccnc4)nc3c2)cc1OC	inactive: -23.7%
CCOc1ccc(CNC(=O)c2ccc3c(c2)nc2n3CCCCC2)cc1	inactive: -3.62%
CC(C)Oc1ccc(CNC(=O)C2CCN(Cc3cc4ccccc4n3Cc3ccccc3)CC2)cc1	inactive: -8.09%
Cc1ccc2c(c1)cc(C(=O)NCc1ccccc1C)n2C	inactive: 4.54%
CCc1cnc2c(c1SCC(=O)Nc1ccc(C(=O)OC)cc1)c(=O)n(C)c(=O)n2C	inactive: 1.36%
CCn1c2ccccc2c2cc(NC(=O)COc3cc(C)ccc3C)ccc21	inactive: 11.1%
Cc1cccc(Cn2c(COc3ccccc3)nc3ccccc32)c1	inactive: -56.1%
O=C(COC(=O)c1cccc(NC(=O)c2ccc(Br)cc2)c1)c1ccc(Cl)cc1	inactive: 26.3%
CC(C)(C)c1ccc(OCCOCCn2c(-c3ccc(Cl)cc3)nc3ccccc3c2=O)cc1	inactive: -7.55%
O=C(/C=C/c1ccccc1)Nc1nc2n(n1)C(c1ccc(F)cc1)C=C(c1ccccc1)N2 (stereo unspecified)	inactive: -18.3%
CC(C)Oc1ccc(CNC(=O)c2ccc(NC(=O)N3CC(C)Sc4ccccc43)cc2)cc1 (stereo unspecified)	inactive: -18.7%
Cc1cc(C)c(S(=O)(=O)NCC(c2ccco2)S(=O)(=O)c2cccs2)c(C)c1 (stereo unspecified)	inactive: -24%
Cc1cc(Br)cc2c1N(Cc1ccccc1OC(C)C)C(=O)C2=O	inactive: -30.9%
CC1CCc2onc(C(=O)N3CCN(c4cccc(Cl)c4)CC3)c2C1 (stereo unspecified)	inactive: -17.7%
CCc1nn2c(=O)c(S(=O)(=O)Nc3ccc(C)c(C)c3)c(C)nc2s1	inactive: 19.8%
CCOC(=O)CNC(=O)c1cc2c(=O)n3cccc(C)c3nc2n1C	inactive: -0.302%
CC(=O)CC/C=C(\C)CC/C=C(\C)CC/C=C(\C)CCC=C(C)C	inactive: 30.6%
